According to PMC5215751:
These are yes or no findings as the source states them, for the method shown. Binding seen in cells or lysates may run through a third protein. Some binding calls cover weakened binding; strength is not graded here.

Amino acid sequences for entries named in this document (tags omitted). A change or cut given only in a name is not applied to a line headed by its entry.
UniProt Q13049: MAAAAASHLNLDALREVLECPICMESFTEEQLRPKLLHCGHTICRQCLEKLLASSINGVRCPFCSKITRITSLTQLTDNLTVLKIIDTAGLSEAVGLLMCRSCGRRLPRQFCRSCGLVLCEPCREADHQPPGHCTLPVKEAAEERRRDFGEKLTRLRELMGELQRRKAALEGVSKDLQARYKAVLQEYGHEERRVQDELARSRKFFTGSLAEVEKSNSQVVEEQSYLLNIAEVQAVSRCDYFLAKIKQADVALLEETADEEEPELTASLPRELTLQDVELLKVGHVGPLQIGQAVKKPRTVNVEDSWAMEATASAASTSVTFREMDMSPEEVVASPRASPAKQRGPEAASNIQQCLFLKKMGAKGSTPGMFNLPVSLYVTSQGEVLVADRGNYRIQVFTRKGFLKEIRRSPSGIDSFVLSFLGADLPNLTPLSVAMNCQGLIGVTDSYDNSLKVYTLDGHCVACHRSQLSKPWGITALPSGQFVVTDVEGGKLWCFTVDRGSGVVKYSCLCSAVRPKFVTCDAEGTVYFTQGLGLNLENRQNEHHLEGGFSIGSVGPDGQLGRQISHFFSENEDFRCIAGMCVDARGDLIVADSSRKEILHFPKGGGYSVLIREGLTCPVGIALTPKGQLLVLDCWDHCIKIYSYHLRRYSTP
UniProt Q969Q1: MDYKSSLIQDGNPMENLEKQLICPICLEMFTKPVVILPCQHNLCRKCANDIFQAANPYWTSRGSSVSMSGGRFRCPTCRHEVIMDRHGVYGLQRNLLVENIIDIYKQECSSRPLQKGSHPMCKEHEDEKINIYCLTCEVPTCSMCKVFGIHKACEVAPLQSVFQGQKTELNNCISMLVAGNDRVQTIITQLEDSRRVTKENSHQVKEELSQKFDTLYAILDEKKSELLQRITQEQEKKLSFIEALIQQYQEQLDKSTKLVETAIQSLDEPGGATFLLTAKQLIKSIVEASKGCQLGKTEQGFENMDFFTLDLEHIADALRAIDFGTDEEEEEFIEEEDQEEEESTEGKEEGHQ
UniProt P0DMV8: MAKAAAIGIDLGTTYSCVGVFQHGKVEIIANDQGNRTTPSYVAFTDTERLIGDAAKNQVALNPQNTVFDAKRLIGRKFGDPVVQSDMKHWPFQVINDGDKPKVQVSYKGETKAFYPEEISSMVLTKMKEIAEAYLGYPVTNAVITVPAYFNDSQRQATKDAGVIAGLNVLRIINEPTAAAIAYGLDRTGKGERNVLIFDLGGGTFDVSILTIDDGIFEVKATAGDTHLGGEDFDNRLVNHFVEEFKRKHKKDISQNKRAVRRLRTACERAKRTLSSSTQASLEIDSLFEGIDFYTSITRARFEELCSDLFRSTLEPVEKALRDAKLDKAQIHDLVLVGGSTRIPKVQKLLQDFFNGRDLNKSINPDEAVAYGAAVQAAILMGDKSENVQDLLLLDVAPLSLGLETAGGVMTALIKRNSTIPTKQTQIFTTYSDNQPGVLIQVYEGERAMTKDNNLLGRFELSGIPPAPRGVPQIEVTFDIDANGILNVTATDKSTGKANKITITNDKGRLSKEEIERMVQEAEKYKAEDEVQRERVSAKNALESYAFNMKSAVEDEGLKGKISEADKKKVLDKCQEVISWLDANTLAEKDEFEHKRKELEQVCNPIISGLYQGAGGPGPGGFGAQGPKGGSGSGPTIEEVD

Key:
FLAG-TRIM32 (human) [1] = target: FLAG-TRIM32 (human) (UniProt Q13049); experiment: co-IP; HEK293 transiently transfected (24 h); FLAG-tagged protein immunoprecipitated with anti-FLAG Sepharose, washed five times with buffer A (50 mM Tris-HCl pH 7.5, 150 mM NaCl, 10% glycerol, 0.1% Triton X-100), eluted with FLAG peptide, western blot; in Fig 5B with co-expressed PKA catalytic subunit and increasing amounts of myc-14-3-3η
FLAG-TRIM32 (human) [2] = target: FLAG-TRIM32 (human) (UniProt Q13049); experiment: co-IP; two-step: FLAG-TRIM32 complexes from transfected HEK293 (anti-FLAG) immunoprecipitated again with anti-myc Sepharose beads; western blot for endogenous HSP70 or 14-3-3
FLAG-TRIM63 = FLAG-TRIM63 (UniProt Q969Q1); experiment: co-IP; HEK293 transiently transfected (24 h); FLAG-tagged protein immunoprecipitated with anti-FLAG Sepharose, washed five times with buffer A (50 mM Tris-HCl pH 7.5, 150 mM NaCl, 10% glycerol, 0.1% Triton X-100), eluted with FLAG peptide, western blot; in Fig 5B with co-expressed PKA catalytic subunit and increasing amounts of myc-14-3-3η

binding (FLAG-TRIM32 (human) [1])	binding (FLAG-TRIM32 (human) [2])	binding (FLAG-TRIM63)	Substance
no binding			myc-V438F (from UniProt P0DMV8 1-641)
binds	binds		myc-HSP70 (from UniProt P0DMV8 1-641)
binds		binds	endogenous HSP70 (HSPA1A) (from UniProt P0DMV8 1-641)
binds			myc-K71S (from UniProt P0DMV8 1-641)
